Data as given in PubChem BioAssay AID624296 (National Center for Advancing Translational Sciences (NCATS), 2012).
Screen size: about 350,000 compounds; about 9,900 (2.8%) were called active. Inconclusive means that the source gave no clear call. Such entries were picked first, then a sample of the others. Calls follow the shape of the dose curve; as a rule, active = well fitted activation curve with a large enough effect; inconclusive = small, poorly fitted or top-dose-only effect; inactive = no such curve, though single readings can be large or run the other way. Potencies of inconclusive entries are left out as doubtful fits.
Potency is read from the fitted curve at half-maximal effect; tags tell the direction and shape of the fitted curve.

Experiment: A quantitative high throughput screen for small molecules that induce DNA re-replication in MCF 10a normal breast cells. Also: nearly all actives have a fitted effect of over 50% in size.
Settings: MCF 10A DNA re-replication, Hoechst nuclear intensity, 48 h; series mostly up to 46.1 µM
For `CCOCCCN(C(=O)Cn1nnc(-c2ccc(C)o2)n1)C(C(=O)NC1CCCC1)c1ccco1` (stereo not given), the Potency was “inactive”. In the case of `CCN(CC)c1cc(C)c2cc(NC(=O)c3ccccc3OC)ccc2n1`, the Potency was inconclusive [activator, single point]. In the case of `CCSc1nc(-c2ccccc2)c(C#N)c(=O)[nH]1`, the Potency was active: 7.31 µM. With `CCn1nc(NC(=O)C(C)C)c2cc3cccc(C)c3nc21` the Potency was inconclusive [activator, single point]. With `N#C/C(=C\c1ccc([N+](=O)[O-])cc1)c1ccccn1` the Potency was “inactive”. For `COc1ccc(/C=C2\C(=O)ON=C2c2ccccc2)cc1`, the Potency was inconclusive [activator, single point]. With `Cc1nc2ccccn2c1-c1ccnn1S(=O)(=O)c1ccc(F)cc1` the Potency was “inactive”. With `Cc1cccc(C)c1NC(=S)NN(Cc1ccccc1)c1ccccc1` the Potency was inconclusive [activator, single point]. In the case of `CCCc1cc2c(cc1NS(=O)(=O)c1ccc(CCNC(C)=O)cc1)OCO2`, the Potency was “inactive”. With `Cc1cc(/C=C2/NC(=O)N(Cc3ccccc3F)C2=O)c(C)n1-c1ccccn1` the Potency was inconclusive [activator, full curve, poor fit]. In the case of `Cc1cc(OCC(=O)Nc2ccccc2C(N)=O)c2c(C)cc(=O)oc2c1`, the Potency was “inactive”. For `COc1ccc(-c2nn(CC(=O)N(C)C)c(=O)c3ccccc23)cc1`, the Potency was inconclusive [activator, partial curve, poor fit]. In the case of `CN(C)CCCN(Cc1ccccc1)C(=S)Nc1ccc(F)c(Cl)c1`, the Potency was inconclusive [activator, single point]. With `Cc1cc(C)c(OCCNC(=O)c2ccccc2Sc2ccccc2C#N)c(C)c1` the Potency was inconclusive [activator, single point]. With `N#CC1=C(N)SC(N)=C(C#N)C1Cc1ccccc1` the Potency was inconclusive [activator, full curve, poor fit]. In the case of `COc1cc(NC(=O)CN(C)S(=O)(=O)c2ccc(C)cc2)cc(OC)c1`, the Potency was inconclusive [activator, single point]. With `CCOC(=O)c1c(C)[nH]c(C(=O)OCC(=O)N(CC(C)C)C2CCS(=O)(=O)C2)c1C` (stereo not given) the Potency was “inactive”. In the case of `CCOc1ccc(NC(=O)C(C)Oc2ccccc2C(=O)Nc2cccc(Cl)c2Cl)cc1` (stereo not given), the Potency was inconclusive [activator, partial curve, poor fit]. In the case of `O=C(O)c1ccc(N/N=C/c2ccc(-c3ccccc3Cl)o2)cc1`, the Potency was inconclusive [activator, full curve, poor fit]. For `CCOC(=O)NNC(=O)c1[nH]c2ccc(Br)cc2c1-c1ccccc1`, the Potency was inconclusive [activator, single point]. With `CC(C)COC(=O)NCCOC(=O)Nc1cccc(Cl)c1` the Potency was inconclusive [activator, full curve, poor fit]. For `Cc1nc(C)c2c(c1C(F)(F)F)-c1ccccc1C2(F)F`, the Potency was inconclusive [activator, partial curve, poor fit]. For `O=C(Nc1cccc(Oc2ccc3c(c2)C(=O)NC3=O)c1)c1ccco1`, the Potency was inconclusive [activator, partial curve, poor fit]. For `COc1ccc(CC(=O)Nc2ccc(S(=O)(=O)NC(C)C)cc2)cc1`, the Potency was “inactive”. With `Cc1ccc(NC(=Nc2ccc(Br)cc2)N2CCOCC2)cc1C` the Potency was “inactive”. In the case of `CC(C)(C)c1ccc(OCC(O)CN(CCO)CC(O)Cn2ccc3ccccc32)cc1` (stereo not given), the Potency was inconclusive [activator, single point]. In the case of `CCOC(=O)c1ccccc1OCc1cc(/C=N/n2cncn2)ccc1OC`, the Potency was inconclusive [activator, single point]. With `CCOC(=O)/C=C/C(=O)Nc1ccc(Oc2ccccc2)cc1` the Potency was active: 16.4 µM. In the case of `CC(C)(C)NC(=S)N1CCC(C(=O)c2ccc(Cl)cc2)CC1`, the Potency was “inactive”. In the case of `O=c1c2c(-c3ccccc3)ccnc2[nH]n1-c1ccccc1`, the Potency was inconclusive [activator, single point]. With `Cc1cccc2cc(/C=N/NC(=O)c3ccccc3O)c(Cl)nc12` the Potency was active: 7.31 µM. In the case of `COc1ccc(OC)c(CCNC(=O)c2ccc3c(=O)[nH]c4c(C(=O)NC(C)C)sc(=S)n4c3c2)c1`, the Potency was inconclusive [activator, partial curve, poor fit]. For `COc1ccc(CN(C)C(=O)c2cccc(S(=O)(=O)N3CCN(c4ccccc4)CC3)c2)c(OC)c1OC`, the Potency was inconclusive [activator, partial curve, poor fit]. In the case of `CC(/C=C/c1ccccc1F)=N\NC(=O)c1cccc(F)c1`, the Potency was inconclusive [activator, single point]. With `CC(C)C[C@H](NC(=O)c1[nH]cnc1C(=O)N[C@@H](C)C(=O)OC(C)(C)C)C(=O)OCc1ccccc1` the Potency was inconclusive [activator, partial curve, poor fit]. With `CC(C)OC(=O)c1cccc(NC(=O)c2ccccc2)c1` the Potency was inconclusive [activator, partial curve, poor fit]. In the case of `CC1=NN(c2ccc(C)cc2C)C(=O)C1C(c1cccc(O)c1)C1C(=O)N(c2ccc(C)cc2C)N=C1C` (stereo not given), the Potency was inconclusive [activator, single point]. For `CC(=O)Nc1ccc(C=NNc2nnc(NN=Cc3ccc(NC(C)=O)cc3)c3ccccc23)cc1`, the Potency was inconclusive [activator, partial curve, poor fit]. With `CCOc1ccc(CSC2=NCCN2)cc1[N+](=O)[O-]` the Potency was inconclusive [activator, single point]. In the case of `COc1ccccc1-n1nnnc1SCC(=O)Nc1ccc(C)c(N)c1`, the Potency was “inactive”. For `CC1(C)C2CCC1(CS(=O)(=O)NC1CCCC1)C(=O)C2` (stereo not given), the Potency was inconclusive [activator, partial curve, poor fit]. With `Cc1nn(-c2ccccc2)c(C)c1/C=N/NC(=O)c1cc(C23CC4CC(CC(C4)C2)C3)[nH]n1` the Potency was active: 2.59 µM. In the case of `COc1cccc(C2C3=C(CC(C)(C)CC3=O)Nc3cc4c(cc32)OCO4)c1` (stereo not given), the Potency was inconclusive [activator, single point]. For `CC[C@]12c3[nH]c4cc(CCC(=O)N(C)C)ccc4c3CCN1C(=O)[C@@H](CC(=O)NCCc1ccccn1)C[C@@H]2C(=O)N1CCN(C(=O)c2ccco2)CC1`, the Potency was inconclusive [activator, single point]. With `CCOC(=O)[C@H]1[C@H]2COc3ccc(OC)cc3[C@@H]2N2C(=O)CN(C)C(=O)[C@@]12C` the Potency was “inactive”. In the case of `COc1cccc2cc(C(=O)CS(=O)(=O)c3ccc(Cl)cc3)c(=O)oc12`, the Potency was inconclusive [activator, single point]. In the case of `c1cncc(Cc2cc3ccccc3[nH]2)c1`, the Potency was inconclusive [activator, full curve, poor fit]. For `Cc1ccc(S(=O)(=O)N2CCC(=O)N(C(COCc3ccc(Cl)cc3Cl)Cc3ccccc3)CC2)cc1` (stereo not given), the Potency was inconclusive [activator, single point]. For `Cc1cc(C)nc(SCCCNCc2ccccc2)n1`, the Potency was “inactive”. In the case of `O=C(CSc1ccc(-c2ccc(Cl)cc2)nn1)N1CCCc2ccccc21`, the Potency was inconclusive [activator, partial curve, poor fit]. In the case of `Cc1ccccc1OCC(=O)OCC(=O)Nc1ccc(Cl)cn1`, the Potency was “inactive”. In the case of `Cc1cc(C(=O)CNCc2ccco2)c(C)n1-c1ccc(F)cc1`, the Potency was inconclusive [activator, full curve, poor fit]. In the case of `CC(=O)OC1CSC2c3ccccc3C(=O)N2Cc2sccc21` (stereo not given), the Potency was inconclusive [activator, partial curve, poor fit]. In the case of `Cc1cc(C)c(S(=O)(=O)N(C)CC(=O)NCCN2CCOCC2)c(C)c1`, the Potency was “inactive”. With `CC(C)(C)c1cc(C2=CSC3=NCCN23)cc(C(C)(C)C)c1O` the Potency was inconclusive [activator, partial curve, poor fit]. With `O=c1[nH]c2ccccc2nc1/C=C/c1ccc(Cl)cc1` the Potency was active: 18.4 µM. In the case of `CCCn1c(N)c(NCCN2CCOCC2)c(=O)n(CC(=O)NCc2ccccc2)c1=O`, the Potency was “inactive”. In the case of `CCc1cc2c(nc1CC)CCN(CC/C(C)=N/OC[C@H]1O[C@H](c3ccccc3)C=C[C@@H]1Oc1ccc(OC)cc1)C2`, the Potency was inconclusive [activator, single point]. In the case of `COc1ccccc1C(=O)NCC(=O)NCCC(c1ccccc1)c1ccccc1`, the Potency was inconclusive [activator, single point]. For `O=C(CNc1cccc(S(=O)(=O)N2CCCC2)c1)Nc1ccc(C(F)(F)F)cc1`, the Potency was inconclusive [activator, partial curve, poor fit]. With `COC(=O)c1ccccc1NC(=S)NC(=O)COc1ccccc1Cl` the Potency was “inactive”. For `O=C1CN(C(=O)CN2CCCC2)C(c2ccccc2)c2cc(Br)ccc2N1` (stereo not given), the Potency was inconclusive [activator, partial curve, poor fit]. With `CCN(CC)CCn1c2c(c(SCC(=O)Nc3nc4ccccc4s3)nc1=O)CCC2` the Potency was inconclusive [activator, partial curve, poor fit]. With `CCN(C(=O)CCCC(=O)N(CC)c1ccccc1)c1ccccc1` the Potency was inconclusive [activator, full curve, poor fit]. In the case of `O=C(c1ccccc1Br)N1CCN(Cc2ccc3c(c2)OCO3)CC1`, the Potency was “inactive”.
